The whole screen tested about 310,000 compounds, of which about 14,000 (4.5%) showed an effect of 50% or more. The effect is printed as a negative number. This is one part of the list.
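Further: peak tail current of the secondary pulse compared with the same well before compound.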

The test deals with human ether-à-go-go-related gene (hERG) potassium channel (human, UniProt Q12809). The test is described as follows: primary screen, population patch clamp on CHO cells stably expressing hERG.
Sequence of human ether-à-go-go-related gene (hERG) potassium channel (Q12809 whole entry, looked up): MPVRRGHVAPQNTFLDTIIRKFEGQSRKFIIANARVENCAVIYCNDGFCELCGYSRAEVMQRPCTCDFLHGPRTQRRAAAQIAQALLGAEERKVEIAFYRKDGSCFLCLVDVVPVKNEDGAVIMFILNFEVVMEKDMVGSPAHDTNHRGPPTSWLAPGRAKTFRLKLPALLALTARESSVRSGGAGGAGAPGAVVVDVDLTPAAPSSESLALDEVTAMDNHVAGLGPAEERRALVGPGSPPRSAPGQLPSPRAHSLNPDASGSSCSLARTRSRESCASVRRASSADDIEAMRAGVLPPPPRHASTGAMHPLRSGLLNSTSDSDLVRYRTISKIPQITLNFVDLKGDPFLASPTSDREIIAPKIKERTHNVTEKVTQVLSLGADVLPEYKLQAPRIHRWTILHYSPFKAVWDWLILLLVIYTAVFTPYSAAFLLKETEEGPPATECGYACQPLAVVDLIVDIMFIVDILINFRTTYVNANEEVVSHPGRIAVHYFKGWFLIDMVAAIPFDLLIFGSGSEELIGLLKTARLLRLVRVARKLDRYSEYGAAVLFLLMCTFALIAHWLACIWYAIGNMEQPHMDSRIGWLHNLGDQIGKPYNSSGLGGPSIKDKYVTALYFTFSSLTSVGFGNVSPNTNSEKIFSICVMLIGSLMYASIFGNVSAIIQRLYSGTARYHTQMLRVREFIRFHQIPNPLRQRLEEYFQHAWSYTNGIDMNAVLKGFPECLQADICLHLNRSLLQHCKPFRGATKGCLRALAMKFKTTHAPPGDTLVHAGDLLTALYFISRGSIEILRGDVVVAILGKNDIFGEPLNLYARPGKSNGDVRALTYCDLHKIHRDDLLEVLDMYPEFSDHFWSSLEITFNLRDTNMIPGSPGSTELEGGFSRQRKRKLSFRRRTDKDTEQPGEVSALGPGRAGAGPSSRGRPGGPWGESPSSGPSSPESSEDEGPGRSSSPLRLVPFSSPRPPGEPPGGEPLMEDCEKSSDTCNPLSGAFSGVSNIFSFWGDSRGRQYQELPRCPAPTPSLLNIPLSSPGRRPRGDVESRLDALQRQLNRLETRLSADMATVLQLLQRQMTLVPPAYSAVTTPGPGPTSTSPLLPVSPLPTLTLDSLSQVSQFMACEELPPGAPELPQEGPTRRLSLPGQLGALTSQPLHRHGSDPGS
Take `O=C(O)c1ccc(-c2ccccc2)[nH]c1=O`: the “hERG current change (%, negative = inhibition) at 10uM” value is given as 7.95%. With `COc1ccc(Cl)cc1NC(=O)CSc1nc(N2CCOCC2)nc(N2CCOCC2)n1`, the “hERG current change (%, negative = inhibition) at 10uM” value is reported as -9.85%. Turning to `O=C(c1cnc2ccccn2c1=O)N1CCCc2ccccc21`, the “hERG current change (%, negative = inhibition) at 10uM” value is recorded as -1.57%. To `Cc1ccc(NCC(=O)c2ccc(C)cc2)cc1` belongs 4.98%. For the compound `Cc1ccc(NC(=O)CN2C(=O)c3ccccc3S2(=O)=O)c(C)c1`, the “hERG current change (%, negative = inhibition) at 10uM” value worked out at 5.77%. Consider `COCC1CCCCN1Cc1cn[nH]c1-c1ccc(OC)cc1OC` (stereo not drawn), for which the “hERG current change (%, negative = inhibition) at 10uM” value was -25.5%.

`CN(C)C(=O)/C(=C\c1ccc(-c2cccc([N+](=O)[O-])c2)o1)NC(=O)c1ccccc1`: the “hERG current change (%, negative = inhibition) at 10uM” value is listed as -47.9%. As to `CCOC(=O)c1sc2ncnc(N3CCN(CC)CC3)c2c1C`, the “hERG current change (%, negative = inhibition) at 10uM” value is given as -63.9%. Under `O=C(O)c1cc(-c2ccc(/C=C3\NC(=O)N(c4ccc(Cl)cc4)C3=O)o2)ccc1Cl` stands 7.5%; under `CC(C)(CNC(=O)c1ccc(S(=O)(=O)Nc2cccc(C(F)(F)F)c2)cc1)N1CCOCC1`, -29.6%.

Take `N#Cc1c(SCc2cccc(Cl)c2)sc(C(=O)c2ccccc2)c1N`: the “hERG current change (%, negative = inhibition) at 10uM” value turned out to be 16.9%. Under `Cc1nc(NC(=O)c2ccc3c(c2)OCO3)ccc1Br` stands 7.84%; under `COc1ccc(NC(=O)C(c2ccc(OC)cc2)N(C)C(=O)Cc2cccs2)cc1` (stereo not drawn), -16.5%.

On to `Cc1oc(C(=O)O)cc1COc1cccc2ccccc12`, for which the “hERG current change (%, negative = inhibition) at 10uM” value came to 16.5%. In the case of `Cc1cc(OC(F)F)ccc1NC(=O)Nc1ccc2c(c1)OCO2`, the “hERG current change (%, negative = inhibition) at 10uM” value was determined as 10.5%.

On to `CCCCc1nc(NCCNC(=O)c2ccco2)c(C#N)c2c1CSC(C)(C)C2`, for which the “hERG current change (%, negative = inhibition) at 10uM” value was -28.1%. To `O=C(O)c1ccc(CNC(=S)Nc2ccccc2)cc1` belongs 6.82%; to `COc1ccc(S(=O)(=O)Nc2c(C)ccc3nsnc23)cc1OC`, -22.8%. `COc1cc2c(cc1OC)C1=C(C#N)CCC(=NC(=O)c3ccc(Cl)cc3)N1CC2`: the “hERG current change (%, negative = inhibition) at 10uM” value came out at 1.52%.

`CCN(CC(=O)Nc1cccc(F)c1)Cc1nc2ccccc2c(=O)[nH]1`: the “hERG current change (%, negative = inhibition) at 10uM” value is given as -31.7%. Regarding `CN(C)CCCNc1oc(-c2cccc(Cl)c2)nc1C#N`, the “hERG current change (%, negative = inhibition) at 10uM” value is reported as -33.1%. As for `Cc1ccc2[nH]c(=O)c(CNC(C)(C)C)cc2c1`, the “hERG current change (%, negative = inhibition) at 10uM” value is -19.5%.

As to `COc1ccc(N(CC(=O)Nc2cccc(C)c2)S(=O)(=O)c2c(C)n[nH]c2C)cc1`, the “hERG current change (%, negative = inhibition) at 10uM” value is reported as -24.9%. In the case of `CCN(CC)S(=O)(=O)c1ccc(NC(=O)Cc2cccs2)cc1`, the “hERG current change (%, negative = inhibition) at 10uM” value amounted to 5.81%.

For `Cc1cc(C)n(-c2nc(SCC(=O)Nc3nccs3)c3c4c(sc3n2)COC(C)(C)C4)n1`, the “hERG current change (%, negative = inhibition) at 10uM” value amounted to 0.0558%. With `O=C(OCc1nnc(-c2ccc([N+](=O)[O-])cc2)o1)C1CC(=O)N(CCc2ccccc2)C1` (stereo not drawn), the “hERG current change (%, negative = inhibition) at 10uM” value was -61.7%. As to `CCc1noc(C)c1C(=O)Nc1ccc(S(=O)(=O)N2CCC(C)CC2)cc1`, the “hERG current change (%, negative = inhibition) at 10uM” value was -23.3%. To `CCC(CC)c1nc(C(N)=O)c2[nH]c(=O)n(-c3ccc(OC)c(OC)c3)c2n1` belongs 15%; to `CCOc1cc2[nH]c(=S)n(Cc3ccc(C(=O)NCCCN4CCOCC4)cc3)c(=O)c2cc1OCC`, 4.48%; to `COc1cc2[nH]c3c(=O)n(CCN4CCOCC4)cnc3c2cc1OC`, -8.21%. Regarding `O=C1/C(=C\c2ccccc2Cl)SC(=S)N1CCC(=O)N1CCCc2ccccc21`, the “hERG current change (%, negative = inhibition) at 10uM” value is 16.2%. To `COC(=O)C1=NN(C(=O)c2ccc(C)cc2)C(O)(c2ccc(Cl)cc2)C1` (stereo not drawn) belongs -31.2%; to `CCn1nnnc1SCC(=O)NC1Cc2ccccc2C1`, 15.2%. With `Cc1cc(N2CCC(C(N)=O)CC2)nc(-c2ccccc2)n1`, the “hERG current change (%, negative = inhibition) at 10uM” value is on record as -15.2%. To `O=C1C2C3C=CC(C2C(=O)N1c1nccs1)C1C(=O)N(c2nccs2)C(=O)C31` (stereo not drawn) belongs 16.2%; to `O=C(O)COCC(=O)N1CCN(C(c2ccccc2)c2ccccc2)CC1`, -3.19%; to `CSc1ccccc1OCc1cc(C(=O)N2CCN(c3ccccc3)CC2C)no1` (stereo not drawn), 5.83%.

Take `CC(=O)NC1(C(F)(F)F)C(=O)Nc2c1c(=O)[nH]c(=O)n2CCc1ccccc1` (stereo not drawn): the “hERG current change (%, negative = inhibition) at 10uM” value turned out to be 6.34%. Regarding `CCCCNC(=S)N(C)/N=C/c1ccccc1F`, the “hERG current change (%, negative = inhibition) at 10uM” value was 2.14%.

On to `CC(C)CCNC(=O)CN(Cc1ccc2c(c1)OCO2)C(=O)CCC(=O)Nc1ccccn1`, for which the “hERG current change (%, negative = inhibition) at 10uM” value was -70.7%.

`N#Cc1c(F)cccc1N1CCN(Cc2ccc3c(c2)OCO3)CC1`: the “hERG current change (%, negative = inhibition) at 10uM” value is listed as -81.3%. As to `CCCCNC(=O)c1onc(CSc2cc(C)cc(C)c2)c1C(=O)NCCCC`, the “hERG current change (%, negative = inhibition) at 10uM” value was found to be 5.89%. As to `O=C(O)c1cn[nH]c1-c1cccc([N+](=O)[O-])c1`, the “hERG current change (%, negative = inhibition) at 10uM” value is given as 16.1%. For the compound `CCC(C)NC(=O)NC1C(NC(=O)NC(C)CC)N(C)C(=O)N1C` (stereo not drawn), the “hERG current change (%, negative = inhibition) at 10uM” value amounted to 11.6%. For the compound `CC(C(O)C12CC3CC(CC(C3)C1)C2)N1CCCCC1.Cl` (stereo not drawn), the “hERG current change (%, negative = inhibition) at 10uM” value is on record as 8.83%. Turning to `COc1ccccc1NC(=S)N1CCn2cccc2C1c1cccnc1` (stereo not drawn), the “hERG current change (%, negative = inhibition) at 10uM” value is on record as -10.9%. Regarding `Cc1cc(C)cc(NC(=O)CCn2c(=S)[nH]c3ccccc3c2=O)c1`, the “hERG current change (%, negative = inhibition) at 10uM” value is recorded as 9.51%. Regarding `NC(=O)CNc1n[nH]c(=S)[nH]c1=O`, the “hERG current change (%, negative = inhibition) at 10uM” value is listed as -1.64%.

Turning to `OCC1CCCCN1C(=S)Nc1cccc(Cl)c1` (stereo not drawn), the “hERG current change (%, negative = inhibition) at 10uM” value is given as 11.6%. For the compound `O=C(CC1NC(=S)NC1=O)c1ccc(Cl)cc1` (stereo not drawn), the “hERG current change (%, negative = inhibition) at 10uM” value was determined as 32.8%.

As for `O=C(CSc1n[nH]c(-c2ccccc2Br)n1)NCCN1C(=O)CSC1=O`, the “hERG current change (%, negative = inhibition) at 10uM” value stood at 22.8%. Take `CCc1ccc2oc(=O)cc(CN3CCN(CCO)CC3)c2c1`: the “hERG current change (%, negative = inhibition) at 10uM” value is -14.9%. To `O=C(COC(=O)Cc1ccsc1)NC(c1ccccc1)c1ccccc1` belongs 9.47%; to `NC(=O)c1nsc(C(=O)N(Cc2cccnc2)C(C(=O)NCc2ccc(F)cc2)c2ccc(F)cc2)c1N` (stereo not drawn), 0.71%; to `COc1ccc2cc(C(C)C(=O)N3CCC(C(N)=O)CC3)ccc2c1` (stereo not drawn), 17.1%. With `CC1=NNC(=O)C1CCC(=O)N/N=C/c1ccccc1` (stereo not drawn), the “hERG current change (%, negative = inhibition) at 10uM” value is on record as 11.3%.

For `COc1ccc(/C=C(/C#N)C(=O)Nc2cccnc2)cc1OC`, the “hERG current change (%, negative = inhibition) at 10uM” value is -1.83%.

As for `Cc1cc(C)cc(NC(=O)N2CCC(NC(=O)c3ccc(F)cc3)CC2)c1`, the “hERG current change (%, negative = inhibition) at 10uM” value is -35.5%. Turning to `Cc1cc(C)nc(N(C#N)Cc2ccc([N+](=O)[O-])cc2)n1`, the “hERG current change (%, negative = inhibition) at 10uM” value is reported as -26.6%. As for `Cc1ccc(OCc2nc(C#N)c(N3CCCCC3)o2)cc1`, the “hERG current change (%, negative = inhibition) at 10uM” value is reported as -4.24%. Consider `O=S(=O)(NCCc1cn2ccccc2n1)c1ccc2c(c1)CCCC2`, for which the “hERG current change (%, negative = inhibition) at 10uM” value is -19.1%. With `CN=C(Cc1ccccc1)C1=C(O)CC(C)(C)CC1=O`, the “hERG current change (%, negative = inhibition) at 10uM” value was found to be 36.8%. As to `COc1ccc(CNC(=O)CN(c2ccc(OC)cc2)S(=O)(=O)c2c(C)nn(C)c2C)cc1`, the “hERG current change (%, negative = inhibition) at 10uM” value was -18.7%. With `O=S(=O)(c1cccc2nsnc12)N1CCNCC1`, the “hERG current change (%, negative = inhibition) at 10uM” value is on record as 1.59%. To `CC1CCCCN1CCNC(=O)c1ccc2c(=O)n(Cc3ccc(Cl)cc3)c(=S)[nH]c2c1` (stereo not drawn) belongs -50.9%; to `COc1ccc(C(=O)COc2ccccc2N2C(=O)C3C4C=CC(C4)C3C2=O)cc1` (stereo not drawn), -5.79%. In the case of `OCCCc1ccc(O)c(O)c1`, the “hERG current change (%, negative = inhibition) at 10uM” value is given as -2.3%. Consider `COC(=O)c1cc(NC(=O)Cc2cc(OC)c(OC)c(OC)c2)cc(C(=O)OC)c1`, for which the “hERG current change (%, negative = inhibition) at 10uM” value was found to be 7.38%. With `CC1CCCN(S(=O)(=O)c2cccc3nonc23)C1` (stereo not drawn), the “hERG current change (%, negative = inhibition) at 10uM” value came out at 20.6%.

For `CCN(CC)CCn1c(=S)[nH]c2cc(Cl)ccc2c1=O`, the “hERG current change (%, negative = inhibition) at 10uM” value is -63.2%.

As to `COc1cc(C(=O)NCC(=O)N2CCN(S(=O)(=O)c3cc(C)ccc3C)CC2)cc(OC)c1OC`, the “hERG current change (%, negative = inhibition) at 10uM” value is on record as -20.9%. `O=c1[nH]ncc(NCCCO)c1Cl`: the “hERG current change (%, negative = inhibition) at 10uM” value is given as 8.72%. Under `O=C(CCNC(=O)N1CC(=O)Nc2ccccc21)Nc1cccc(Cl)c1` stands 8.44%; under `C#CCSc1nc(N)c2c(n1)OC(N)=C(C#N)C2c1cccnc1` (stereo not drawn), -7.78%. To `CCOC(=O)c1ccc(S(=O)(=O)NNC(=O)COc2cccc(C)c2)cc1` belongs 34.6%; to `CCc1ccc(NC(=O)C2CCC(CNC(=O)[C@@H]3Cc4ccccc4CN3)CC2)cc1` (stereo partly drawn), 4.23%; to `O=C(Nc1cc(S(=O)(=O)N2CCOCC2)ccc1N1CCOCC1)c1cn2ccccc2n1`, -52.3%. To `Cc1ccc(Cl)cc1N1CCN(S(C)(=O)=O)CC1` belongs -5.31%; to `Cc1c(Cl)cccc1NC(=O)Nc1ccccc1C(N)=O`, 19%; to `Cc1nn(Cc2c(Cl)cccc2Cl)c(C)c1NC(=O)CCCn1nc(C)c([N+](=O)[O-])c1C`, -8.69%. In the case of `CC(NC(=O)c1ccc(Br)cc1)c1ccc2c(c1)CCCC2` (stereo not drawn), the “hERG current change (%, negative = inhibition) at 10uM” value is reported as -14.6%. Take `CC(C(=O)OCn1nnc2ccccc2c1=O)N1C(=O)c2ccccc2C1=O` (stereo not drawn): the “hERG current change (%, negative = inhibition) at 10uM” value is listed as -0.386%.

On to `O=C(CN(c1cccc([N+](=O)[O-])c1)S(=O)(=O)c1ccccc1)N(Cc1ccccc1)Cc1ccccc1`, for which the “hERG current change (%, negative = inhibition) at 10uM” value came out at 15.3%. Consider `COc1cccc(C2CC(=O)Nc3cc4c(cc32)OCCO4)c1OC(C)C` (stereo not drawn), for which the “hERG current change (%, negative = inhibition) at 10uM” value was 7.62%. Take `Cn1nnc2cc(C(=O)Nc3ccc(Cl)cc3)ccc21`: the “hERG current change (%, negative = inhibition) at 10uM” value is given as -3.78%.

As to `CC(=O)N1c2ccc(S(=O)(=O)NCC3CCC(C(=O)NC4CCC(C)CC4)CC3)cc2CC1C` (stereo not drawn), the “hERG current change (%, negative = inhibition) at 10uM” value is listed as -3.24%. Take `Cc1nn(C(C)c2nc(-c3ccccc3)no2)c(C)c1[N+](=O)[O-]` (stereo not drawn): the “hERG current change (%, negative = inhibition) at 10uM” value is -23.7%.
